Reference: PubChem BioAssay AID759 (NMMLSC, 2007)
Among all 190,000 compounds or so, about 270 (0.14%) were called active. Inconclusive means that the source gave no clear call. Such entries were picked first, then a sample of the others.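 Rule for the calls: active = GTP binding activity at least 20% away from the 100% baseline, either lowered as inhibitor or raised as activator; inconclusive = flagged as likely green fluorescent, judged across all proteins in the well; inactive = the rest.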

Biological target: GTPase HRas (Homo sapiens) (UniProt P01112)
Sequence of UniProt P01112 (P01112 whole entry, looked up): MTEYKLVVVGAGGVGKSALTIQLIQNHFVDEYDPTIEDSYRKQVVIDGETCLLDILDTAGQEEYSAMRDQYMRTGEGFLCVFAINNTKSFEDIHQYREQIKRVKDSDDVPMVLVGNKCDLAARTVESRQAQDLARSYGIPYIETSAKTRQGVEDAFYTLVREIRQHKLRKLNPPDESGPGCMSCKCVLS
Assay: HRas wt fluorescent GTP binding changes, either direction – biochemical, wildtype, bead-based flow cytometry, multiplex, primary screen (AID 759);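 note: 0% = unlabeled GTP competition control and 100% = no-compound control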
Settings: GST-Ras wt beads, Bodipy-FL-GTP binding, at 10 µM, actives lie on both sides

| Compound | GTP binding activity |
| --- | --- |
| O=c1n(Cc2ccc(Cl)cc2)c2sc3c(c2c2ncnn12)CCCC3 | inconclusive: 76% |
| Nc1c(C(=O)NCc2ccco2)c2nc3ccccc3nc2n1CCc1ccc(F)cc1 | inconclusive: 102% |
| CC1=NNC(=O)C1C(c1ccccc1)C1C(=O)NN=C1C (stereo unspecified) | inactive: 97% |
| CCOC(=O)c1cnc2c(C#N)cnn2c1N | active: 72% |
| COC(=O)c1oc2ccccc2c1NC(=O)c1ccccc1O | inconclusive: 93% |
| CCc1ccc(N(C)S(=O)(=O)c2ccc3[nH]cc(C(=O)NCCN4CCOCC4)c(=O)c3c2)cc1 | inconclusive: 105% |
| CCOC(=O)c1sc(NC(=O)c2cc3ccccc3o2)nc1C | inconclusive: 95% |
| c1ccc(-n2c(SCC3CCCCO3)nnc2-c2cnccn2)cc1 (stereo unspecified) | inconclusive: 89% |
| CCn1c(SCC(=O)N/N=C/c2ccc(C)o2)nnc1-c1ccc(C(C)(C)C)cc1 | inconclusive: 101% |
| Cc1cc(C)n(CCNc2nc3nonc3nc2N2CCCCC2)n1 | inactive: 94% |
| C=CCOC(=O)C1=C[C@H](C2CCCCC2)[C@@H](CCCO)[C@H](OCC)O1 | inactive: 96% |
| Cn1c(=O)oc2cc(S(=O)(=O)NCCC(=O)NCCc3ccccc3)ccc21 | inconclusive: 103% |
| CC(C)Cn1c(N)c(C(=O)COC(=O)c2ccc3c(c2)OCCO3)c(=O)n(C)c1=O | inconclusive: 93% |
| C=CCNc1cnn(CC(C)=O)c(=O)c1Br | inconclusive: 108% |
| CCc1ccc(C2C(C#N)=C(N)N(N3CCOCC3)C3=C2C(=O)CC(C)(C)C3)s1 (stereo unspecified) | inconclusive: 95% |
| Cc1cn2c(nc(=O)c3cccnc32)s1 | inactive: 86% |
| O=C(c1ccco1)N1CCCN(Cc2nc(-c3cccs3)no2)CC1 | inconclusive: 94% |
| COc1cc(OC)cc(C(=O)NNC(=S)Nc2ccc(S(N)(=O)=O)cc2)c1 | inconclusive: 93% |
| CCCNc1c(F)c(F)c2c(C)c3ccccc3nc2c1F | inconclusive: 102% |
| COc1ccc(CCNC(=O)CSc2nc(-c3ccc(OC)c(OC)c3)ccc2C#N)cc1 | inconclusive: 97% |
| CSc1nc2nccc(-c3ccc(-c4ccccc4)cc3)n2n1 | inconclusive: 71% |
| CCOC(=O)N1CCC(N2Cc3cccc(C(=O)Nc4ccc(OC)c(OC)c4)c3C2=O)CC1 | inconclusive: 89% |
| CCN1C(c2ccccc2)=C(c2ccccc2)S/C1=C/C=C1\SC(=S)N(C)C1=O | active: 66% |

| Compound | GTP binding activity |
| --- | --- |
| C(=N\N(Cc1ccccc1)c1ccccc1)/c1cccnc1 | inactive: 99% |
| COCCCNC(=O)c1ccc2nc3ccccc3c(=O)n2c1 | inconclusive: 94% |
| CC(NC(=O)C1C2C=CC(C2)C1C(=O)O)c1ccccc1 (stereo unspecified) | inconclusive: 102% |
| Cc1ccc(C(=O)/C=C/c2ccc(-c3ccc(C)cc3)o2)cc1 | inconclusive: 91% |
| O=C(Nc1ccc(N2CCOCC2)c(Cl)c1)c1ncn[nH]1 | inconclusive: 115% |
| COc1ccc(CNc2oc(Cc3cccc4ccccc34)nc2C#N)cc1 | inconclusive: 107% |
| COc1ccc(CC(=O)N2CCOCC2)cc1 | inconclusive: 102% |
| Cc1ccc(C)c(CSCC(=O)NCc2cccs2)c1 | inconclusive: 94% |
| Cc1ccc(Nc2nc(CSc3nnc(-c4ccc(F)cc4)n3C)cs2)cc1 | inactive: 97% |
| COc1ccccc1N=c1oc2c(OC)cccc2cc1C(=O)NCc1ccco1 | inconclusive: 90% |
| CCn1cc([N+](=O)[O-])c(C(=O)Nc2nc3ccc(OC)cc3s2)n1 | inactive: 90% |
| O=C(O)C1Sc2[nH]c(=O)sc2C2c3cc(Cl)ccc3OC(=O)C12 (stereo unspecified) | inconclusive: 88% |
| O/N=C1\CC/C(=N\O)c2nn(-c3ccccc3Cl)nc21 | inconclusive: 93% |
| CCOC(=O)c1c(NC(=S)NCC2CCCO2)sc(C)c1C (stereo unspecified) | inconclusive: 92% |
| O=C1CC(/C=C/c2ccco2)=Nc2ccccc2N1 | inconclusive: 102% |
| O=C(O)c1cc(-c2ccc(/C=C3/SC(=S)N(Cc4ccccc4)C3=O)o2)ccc1Cl | inactive: 80% |
| Cc1cc(C)n(C(=O)CNC(=O)C2COc3ccccc3O2)n1 (stereo unspecified) | inactive: 99% |
| NNC(=O)c1cnn(-c2ccccc2)c1C(F)(F)F | inactive: 98% |
| O=C(NCc1nnc(SCC(=O)N2CCC(Cc3ccccc3)CC2)o1)c1ccco1 | inactive: 98% |
| O=C(OC(C(=O)NCc1cccs1)c1ccccn1)c1cccs1 (stereo unspecified) | inconclusive: 41% |
| COc1ccc(N(CC(=O)NCc2ccco2)S(=O)(=O)c2ccccc2)cc1 | inconclusive: 93% |
| COc1ccc(-c2nc(C)ncc2-c2csc(C)n2)c(O)c1 | inconclusive: 103% |
| COc1cccc(-n2c([S-])c(C(=O)Nc3ccc(C(F)(F)F)cc3)[n+]3ccccc23)c1 | inactive: 96% |

| Compound | GTP binding activity |
| --- | --- |
| O=c1c2ccccc2oc2nc3n(c(=O)c12)CCCS3 | inconclusive: 84% |
| COc1cccc(CN2CCNC(=O)C2CC(=O)NCCOc2cccnc2)c1 (stereo unspecified) | inactive: 93% |
| Cc1ccc(-c2csc(-c3c[nH]c4ccccc34)n2)c(C)c1 | inconclusive: 96% |
| O=C(CNC(=S)N(Cc1ccccc1F)C1CCCCC1)NCC1CCCO1 (stereo unspecified) | inactive: 100% |
| COC(=O)c1ccc2nc(Nc3nc4ccc(F)cc4s3)sc2c1 | inconclusive: 90% |
| O=C(NCC1CCCO1)C1CC(=O)N(C2CCCCCC2)C1 (stereo unspecified) | inconclusive: 108% |
| COc1cc(NC(=S)NCCc2ccc(S(N)(=O)=O)cc2)c(OC)cc1Cl | inactive: 96% |
| C=CCNC(=O)CC12CC3CC(C1)CC(CC(=O)NCC=C)(C3)C2 | inactive: 99% |
| C#CC1(NC(=O)N(C)C)CCCCC1 | inconclusive: 97% |
| CCOC(=O)C1(Cc2ccccc2)CCCN(Cc2ccccn2)C1 (stereo unspecified) | inconclusive: 94% |
| COc1cccc(-n2c(Cc3cc(=O)[nH]c(=O)[nH]3)nnc2SCc2cccc(C(F)(F)F)c2)c1 | inactive: 99% |
| O=C(CCC(=O)c1ccc(Oc2ccccc2)cc1)Nc1cccc(Cl)c1Cl | inconclusive: 95% |
| Cc1cc2nc3c(=O)[nH]c(=O)[nH]c3nc2c([N+](=O)[O-])c1N | inconclusive: 66% |
| CN(C)S(=O)(=O)c1ccc(N2CCCC2)c(C(=O)N2CCN(c3ccc([N+](=O)[O-])cc3)CC2)c1 | inconclusive: 94% |
| COc1ccc2cc3cc(C(=O)NCc4ccccn4)oc3nc2c1 | inconclusive: 95% |
| CN(Cc1ccc(-n2cccn2)cc1)Cc1nc(-c2cnccn2)no1 | inconclusive: 99% |
| Nc1nonc1-c1nc2ccccc2n1CC(=O)N/N=C/c1ccc(-c2ccccc2C(=O)O)o1 | inactive: 84% |
| C=C(C)c1cccc(C(C)(C)NC(=O)Nc2ccc3[nH]c(=O)[nH]c3c2)c1 | inconclusive: 105% |
| CCN(C(=O)c1cn(CC)c(=O)c2cc(OC)c(OC)cc12)c1ccccc1C | inconclusive: 111% |
| N#CC(Sc1ccccn1)c1ccc(Cl)cc1Cl (stereo unspecified) | inconclusive: 95% |
| COc1ccc(C2N(c3ccc(F)cc3)C(=O)C3CCCN32)cc1 (stereo unspecified) | inconclusive: 108% |
| COc1cc(/C=N\NC(=O)CNC(=O)C2COc3ccccc3O2)ccc1O (stereo unspecified) | inconclusive: 236% |
| CN1CCN(CC(=O)Nc2cc(N(C)C)nc3ccccc23)CC1 | inconclusive: 96% |

| Compound | GTP binding activity |
| --- | --- |
| CN(C)S(=O)(=O)c1ccc(=S)[nH]c1 | inactive: 98% |
| Cc1ccc(/C(N)=N/OC(=O)Cc2ccccc2)cc1 | inconclusive: 102% |
| COC(=O)c1sc2nc(-c3ccco3)ccc2c1N | inconclusive: 88% |
| Cc1[nH]c2ccccc2c1-c1ccc(Cl)nn1 | inactive: 96% |
| CC(=O)c1c(C)nc2sc3c(=N)n(N)cnc3c2c1-c1ccc(Cl)cc1 | inconclusive: 98% |
| CSc1ncccc1C(=O)N1CCCC(CCC(=O)NCc2ccccc2F)C1 (stereo unspecified) | inactive: 100% |
| C=CCOc1cccc(/C=N/NC(=O)CN(c2cc(Cl)ccc2OC)S(=O)(=O)c2ccc(C)c([N+](=O)[O-])c2)c1 | inconclusive: 151% |
| C=CCN1C(=O)/C(=C\c2ccc(Oc3nc(N4CCOCC4)nc(N4CCOCC4)n3)c(OC)c2)SC1=S | inactive: 96% |
| O=c1ccc2cc(S(=O)(=O)Nc3ccc(F)cc3)ccc2o1 | inconclusive: 91% |
| CN(/N=C/c1cccnc1)C1=NS(=O)(=O)c2ccccc21 | active: 68% |
| CC(=O)NC(Cc1ccccc1C)C(=O)NC1CCN(c2ncccc2[N+](=O)[O-])CC1 (stereo unspecified) | inactive: 102% |
| Cc1csc(NC(=O)c2cc(=O)[nH]c3ccc(S(=O)(=O)N4CCOCC4)cc23)n1 | inactive: 84% |
| Cc1nn(-c2ccccc2)c(Cl)c1CN(C(=O)CCl)c1cccc2ccccc12 | inactive: 98% |
| N#Cc1c(N2CCN(c3ccc(F)cc3)CC2)nc(N)c2c(N)nc3c(c12)CC(=O)N3C1CC1 | inconclusive: 91% |
| CCCCC(O)CN1CCC(c2ccccc2)CC1 (stereo unspecified) | inconclusive: 102% |
| COc1cc(/C=N/Nc2nc(Nc3ccccc3)nc(N3CCCCC3)n2)ccc1OCC(=O)O | inconclusive: 88% |
| CCC1(CC)NC(=O)N(CC(=O)OCC(=O)Nc2sccc2C#N)C1=O | inconclusive: 95% |
| Cc1ccc(C(=O)N/N=C\c2c(C)nn(-c3ccccc3)c2Cl)cn1 | inconclusive: 101% |
| CC1=C(C(=O)Nc2cc(C)ccn2)C(c2ccc(C)cc2)C2=C(CCCC2=O)N1 (stereo unspecified) | inconclusive: 101% |
| Oc1ccc(NC(=S)N=Nc2c(O)[nH]c3ccc(Br)cc23)cc1 | inactive: 80% |
| O=C(c1ccc(C(F)(F)F)cc1)C1CCCN(C(=O)CCN2CCCO2)C1 (stereo unspecified) | inactive: 95% |
| CC(=O)C1C(c2ccccc2)c2c(n[nH]c2C)CC1(C)O (stereo unspecified) | inconclusive: 102% |
